The values below come from PubChem BioAssay AID1347073 (National Center for Advancing Translational Sciences (NCATS), 2019).

Structures are written as SMILES. In all, about 45,000 compounds went through this assay and about 200 (0.44%) were called active. About 7% were inconclusive and are not listed. Calls follow the shape of the dose curve; as a rule, active = well fitted activation curve with a large enough effect; inconclusive = small, poorly fitted or top-dose-only effect; inactive = no such curve, though single readings can be large or run the other way. The list shows a part of the results.

The test is described as follows: qHTS of TDP-43 Inhibitors: NCGC Sytravon Library Screen. Also: 0% is about no effect; nearly all actives have a fitted effect of over 55% in size. Particulars: yeast TDP-43 toxicity rescue, BacTiter-Glo growth, 24 h; series mostly up to 46.1 µM; growth rescue (activation): at the top concentration. An outline of the steps:
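TDP-43-expressing yeast, pregrown in raffinose, seeded at OD600 0.02 in galactose medium with compound for 24 hr at 30 deg C. Growth read by BacTiter-Glo luminescence, so rescue of toxicity appears as activation.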
Turning to `COc1ccc(/C=C/C(=O)Nc2cc(F)ccc2C)cc1S(=O)(=O)N1CCOCC1`, the “growth rescue (activation)” value was inactive: 3.34%.
In the case of `COC(=O)c1ccccc1NC(=S)N(Cc1ccc2c(c1)OCO2)Cc1cc2ccc(OC)cc2[nH]c1=O` it was inactive: 15.8%.
Then `COc1ccc(S(=O)(=O)N2CCC(CN3C(=O)c4cccc5cccc(c45)C3=O)CC2)cc1`, with inactive: 22.6%.
In the case of `CCn1cc(CNC(=O)c2cc(-c3cc(OC)ccc3OC)nc3ccccc23)c(C)n1` it was inactive: 7.85%; in that of `CCC(Oc1ccccc1)C(=O)NC1C(=O)N2C1SC(C)(C)C2C(=O)O` (centres undefined), inactive: 5.92%.
`O=C(/C=C/c1ccccc1Cl)Nc1ccncc1`: the “growth rescue (activation)” value is inactive: 14.2%.
For `Cc1cccc(N(C(=O)c2csnn2)C(C(=O)NC2CCCCC2)c2ccncc2)c1` (centres undefined), the “growth rescue (activation)” value is inactive: -12.5%.
On to `COc1ccc(/C=N/n2cnn(Cc3ccccc3Cl)c2=S)cc1`, for which the “growth rescue (activation)” value was inactive: 9.74%.
On to `CN(C)C(=O)c1cn(-c2ccccc2)nc1-c1cc2ccccc2oc1=O`, for which the “growth rescue (activation)” value was inactive: 4.28%.
On to `O=C(c1ccccc1)c1ccc(NCCCn2ccnc2)c([N+](=O)[O-])c1`, for which the “growth rescue (activation)” value is inactive: -6.5%.
For the compound `CC1CCCCN1CC(=O)Nc1ccccc1Sc1ccccc1` (centres undefined), the “growth rescue (activation)” value was inactive: 15.5%.
Turning to `O=c1c2ccccc2[nH]c(=S)n1CCCN1CCN(c2ccccc2)CC1`, the “growth rescue (activation)” value was inactive: -16.3%.
Regarding `COc1cccc(CNc2nc3ccccc3n2C)c1O`, the “growth rescue (activation)” value was inactive: -3.77%.
In the case of `Nc1cc(Cl)ccc1C(=O)OCC(=O)NC(=O)NCc1ccccc1`, the “growth rescue (activation)” value was inactive: 25%.
Take `CCc1ccc(OC2(C)CCN(Cc3ccccc3OC(F)F)C2)cc1` (centres undefined): the “growth rescue (activation)” value is inactive: 3.33%.
For `CNC(=S)N(Cc1ccco1)Cc1cc2cc3c(cc2[nH]c1=O)OCCO3`, the “growth rescue (activation)” value was inactive: -15.4%.
Then `O=C(CNC(=O)c1ccccc1O)N/N=C/c1ccccn1`, with inactive: -6.21%; and `CCNc1nc(SCC(=O)Nc2ccccc2)nc(N2CCOCC2)n1`, with inactive: 9.78%.
In the case of `O=C(/C=C/c1cccc([N+](=O)[O-])c1)NCc1ccco1` it was inactive: 18.7%; in that of `O=C(N/N=C/c1c[nH]c2ccccc12)c1cc(-c2ccc3ccccc3c2)n[nH]1`, inactive: 14.4%.
As for `CCCNC(=S)N1CCN(CC)CC1`, the “growth rescue (activation)” value is inactive: -3.47%.
`CC(=O)c1ccc(NC(=O)COC(=O)C2C3CC4OC(=O)C2C4C3)cc1` (centres undefined): the “growth rescue (activation)” value was inactive: 2.77%.
As to `COc1ccccc1N1CCN(C(=O)c2ccc3c(c2)N(Cc2ccccc2)C(=O)c2ccccc2S3(=O)=O)CC1`, the “growth rescue (activation)” value was inactive: 33.1%.
In the case of `O=C(CNC(=O)c1ccccc1)OCC(=O)c1cccs1` it was inactive: -1.98%.
`Cc1ccc(-c2c[n+](Cc3ccc(Cl)c(Cl)c3)c3n2CCC3)cc1`: the “growth rescue (activation)” value is inactive: 11.1%.
Then `CC(=O)c1cccc(-c2cnc3c(NC=O)cc(-c4ccccc4)cn23)c1`, with inactive: 10.1%; and `CCc1ccc(NC(=O)CCc2nc3ccccc3[nH]2)cc1`, with inactive: 5.43%; and `CCOC(=O)C1CCN(S(=O)(=O)c2cc(F)ccc2OC)CC1`, with inactive: 11.7%.
As to `CCCCCn1nc(C(=O)N(CC)c2c(N)n(CCCC)c(=O)[nH]c2=O)c2ccccc2c1=O`, the “growth rescue (activation)” value was inactive: -12.6%.
In the case of `Clc1ccc2nnc(Cl)n2n1`, the “growth rescue (activation)” value is inactive: -15.9%.
In the case of `CCN(CC)C(=O)C(=O)Nc1ccc(F)c(Cl)c1` it was inactive: 10.3%; in that of `NS(=O)(=O)c1ccc(NC(=S)NCc2ccccc2Cl)cc1`, inactive: -4.71%.
Regarding `COC(=O)C1=NNC2(c3ccc(Cl)cc3)C(=O)N(c3ccccc3)C(=O)C12` (centres undefined), the “growth rescue (activation)” value is inactive: -13.2%.
With `C=CCN(CC(=O)Nc1cccnc1)S(=O)(=O)c1ccc(Cl)cc1`, the “growth rescue (activation)” value was inactive: -16.8%.
With `O=C(NCc1ccccc1)c1cc(C2CCCCN2C(=O)OCCF)on1` (centres undefined), the “growth rescue (activation)” value was inactive: 2.45%.
With `COc1cccc(/C=C2\SC(N)=NC2=O)c1OS(=O)(=O)c1ccccc1`, the “growth rescue (activation)” value was inactive: -5.08%.
Then `COc1ccccc1N1CCN(C2CCCN(S(=O)(=O)c3cccc(Cl)c3)C2)CC1` (centres undefined), with inactive: 6.46%; and `Cc1nn(-c2ccccc2)c(Cl)c1/C=C(/CC(=O)O)c1nc2ccccc2s1`, with inactive: -92.8%; and `CCN1CCN(C(=O)N(c2ccccc2)c2ccccc2)CC1`, with inactive: -19.1%.
For the compound `Cc1nc(NC(=O)COC(=O)c2ccc(CO)cc2)c(Cl)cc1Cl`, the “growth rescue (activation)” value was inactive: 24.4%.
Regarding `Cc1ccc(OCCCn2ccnc2)cc1C`, the “growth rescue (activation)” value is inactive: 6.89%.
Regarding `CCN1CCN(c2ccc(S(=O)(=O)N3CCCCC3)cc2NC(=O)c2ccc(F)cc2)CC1`, the “growth rescue (activation)” value is inactive: 12.6%.
As to `O=C(NC(=S)/C(=C1\CCCCCN1)[N+](=O)[O-])c1ccccc1`, the “growth rescue (activation)” value is inactive: 21.1%.
In the case of `CC(=O)c1cccc(NC(=O)Cn2cnc3c2c(=O)n(C)c(=O)n3C)c1` it was inactive: 5.52%.
As to `CC(Oc1ccc2ccccc2c1)C(=O)NNC(=O)Nc1ccccc1` (centres undefined), the “growth rescue (activation)” value is inactive: 10.3%.
With `O=C(CN1CCN(Cc2ccc(Cl)cc2)CC1)N/N=C/c1ccncc1`, the “growth rescue (activation)” value was inactive: -8.15%.
With `CCCCn1c(=O)[nH]c(=O)c2c1nc(COc1ccc(C#N)cc1)n2CCC`, the “growth rescue (activation)” value was inactive: 23.8%.
`CC1CCN(C(=O)COC(=O)Cn2cnc3ccccc32)CC1`: the “growth rescue (activation)” value was inactive: 24.6%.
Turning to `C[N+]1(CCC(=O)c2ccccc2)CCCCC1`, the “growth rescue (activation)” value was inactive: 6.44%.
For the compound `Cc1cc(NC(=O)C2CC(=O)N(c3ccccc3)C2)no1` (centres undefined), the “growth rescue (activation)” value is inactive: 12.7%.
For the compound `S=c1[nH]c2ccc(Cl)cc2[nH]1`, the “growth rescue (activation)” value was inactive: -8.15%.
Consider `CCC(=O)N1CCN(c2ccc(NC(=O)COc3ccc(C)cc3C)cc2)CC1`, for which the “growth rescue (activation)” value was inactive: 27.5%.
Regarding `Cc1nnc(SCC(=O)c2ccc([N+](=O)[O-])cc2)s1`, the “growth rescue (activation)” value is inactive: 8.97%.
As for `CC(=O)Nc1cccc(NCC(=O)Nc2cc(S(=O)(=O)N3CCCCC3)ccc2Cl)c1`, the “growth rescue (activation)” value was inactive: 18.3%.
